From the supplement of paper PMC10369915
Some of the results follow. No stated cut-off is given here; in the data, active = 3.2 or more and inactive = the rest. The signal is at background level for most entries.

Target: SHP2 C-SH2 domain E139D
Assay: enrichment score (SH2-bound / input frequency) (ratio); bacterial display of known human phosphotyrosine sites (pTyr-Var adds point mutants) read by sequencing; higher = stronger binding; tyrosines were phosphorylated by kinases first
Conditions: peptide library: pTyr-Var
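Further: displayed peptides selected on beads carrying the immobilized SH2 domain, with library peptides lacking any tyrosine serving as negative controls.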

Enrichment score, inactive:
GRLFAYPDTHR [CAT_Y358] 1.1, DGQVNYEGFVQ [CALM1_Y139_E141G] 0.822, LWKWRYEELKE [CCDC102B_Y299_K298R] 1.2, SEDSEYFRAFE [CASQ2_Y178_K180R_YF] 0.771, TSQSQYFSFRE [CCDC170_Y323] 0.67, QGQHWYSSSDK [CASP10_Y9] 0.799, VVKLTYNENDN [CAMKK2_Y183_A182T] 1.15, DGMADYSDPSY [CDC5L_Y459] 0.425, NSGFFYKTAEE [CCT6B_Y250] 0.847, YSDPSYVKQME [CDC5L_Y464] 0.399, CPSLLYSPVSS [CAMKK2_Y128_P127L] 1.02, PLLEYYRDIFT [CDAN1_Y713] 1.69, LVRAFYCERRR [CARD11_Y970] 0.212, SHLSAFPALEG [CD5_Y465_Y465F] 0.758, QGQHWYSSSDT [CASP10_Y9_K14T] 0.772, EAVSIYQFFGQ [CBLC_Y402_H405Y_YF] 1.26, VTRKEYFIFLE [CAMKV_Y95] 3.02, HDHFGYRQSVT [CD55_Y245_R240H_YF] 2.14, KQNSLYSFSDH [CCDC82_Y331] 0.715

Target: SHP2 C-SH2 domain wild-type
Assay: as above
Conditions: peptide library: pTyr-Var

Enrichment score, inactive:
GRLFAYPDTHR [CAT_Y358] 1.19, DGQVNYEGFVQ [CALM1_Y139_E141G] 0.576, LWKWRYEELKE [CCDC102B_Y299_K298R] 1, SEDSEYFRAFE [CASQ2_Y178_K180R_YF] 0.733, TSQSQYFSFRE [CCDC170_Y323] 0.525, QGQHWYSSSDK [CASP10_Y9] 0.8, VVKLTYNENDN [CAMKK2_Y183_A182T] 0.923, DGMADYSDPSY [CDC5L_Y459] 0.488, NSGFFYKTAEE [CCT6B_Y250] 1.11, YSDPSYVKQME [CDC5L_Y464] 0.464, CPSLLYSPVSS [CAMKK2_Y128_P127L] 1.18, PLLEYYRDIFT [CDAN1_Y713] 1.47, LVRAFYCERRR [CARD11_Y970] 0.15, SHLSAFPALEG [CD5_Y465_Y465F] 0.721, QGQHWYSSSDT [CASP10_Y9_K14T] 0.949, EAVSIYQFFGQ [CBLC_Y402_H405Y_YF] 1.41, VTRKEYFIFLE [CAMKV_Y95] 3.14, HDHFGYRQSVT [CD55_Y245_R240H_YF] 1.79, KQNSLYSFSDH [CCDC82_Y331] 0.705

Target: SHP2 N-SH2 domain L43F
Assay: as above
Conditions: peptide library: pTyr-Var

Enrichment score, active:
VTRKEYFIFLE [CAMKV_Y95] 3.24

Enrichment score, inactive:
GRLFAYPDTHR [CAT_Y358] 0.976, DGQVNYEGFVQ [CALM1_Y139_E141G] 0.721, LWKWRYEELKE [CCDC102B_Y299_K298R] 0.867, SEDSEYFRAFE [CASQ2_Y178_K180R_YF] 0.712, TSQSQYFSFRE [CCDC170_Y323] 0.73, QGQHWYSSSDK [CASP10_Y9] 0.647, VVKLTYNENDN [CAMKK2_Y183_A182T] 0.779, DGMADYSDPSY [CDC5L_Y459] 0.419, NSGFFYKTAEE [CCT6B_Y250] 1.08, YSDPSYVKQME [CDC5L_Y464] 0.427, CPSLLYSPVSS [CAMKK2_Y128_P127L] 0.925, PLLEYYRDIFT [CDAN1_Y713] 1.27, LVRAFYCERRR [CARD11_Y970] 0.209, SHLSAFPALEG [CD5_Y465_Y465F] 0.614, QGQHWYSSSDT [CASP10_Y9_K14T] 0.948, EAVSIYQFFGQ [CBLC_Y402_H405Y_YF] 1.29, HDHFGYRQSVT [CD55_Y245_R240H_YF] 2.03, KQNSLYSFSDH [CCDC82_Y331] 0.686

Target: SHP2 N-SH2 domain T42A
Assay: as above
Conditions: peptide library: pTyr-Var

Enrichment score, inactive:
GRLFAYPDTHR [CAT_Y358] 1.1, DGQVNYEGFVQ [CALM1_Y139_E141G] 1.15, LWKWRYEELKE [CCDC102B_Y299_K298R] 0.779, SEDSEYFRAFE [CASQ2_Y178_K180R_YF] 0.505, TSQSQYFSFRE [CCDC170_Y323] 0.649, QGQHWYSSSDK [CASP10_Y9] 0.687, VVKLTYNENDN [CAMKK2_Y183_A182T] 0.855, DGMADYSDPSY [CDC5L_Y459] 0.473, NSGFFYKTAEE [CCT6B_Y250] 0.931, YSDPSYVKQME [CDC5L_Y464] 0.429, CPSLLYSPVSS [CAMKK2_Y128_P127L] 0.943, PLLEYYRDIFT [CDAN1_Y713] 1.4, LVRAFYCERRR [CARD11_Y970] 0.124, SHLSAFPALEG [CD5_Y465_Y465F] 0.636, QGQHWYSSSDT [CASP10_Y9_K14T] 0.79, EAVSIYQFFGQ [CBLC_Y402_H405Y_YF] 1.19, VTRKEYFIFLE [CAMKV_Y95] 2.17, HDHFGYRQSVT [CD55_Y245_R240H_YF] 1.81, KQNSLYSFSDH [CCDC82_Y331] 0.67

Target: SHP2 N-SH2 domain T52S
Assay: as above
Conditions: peptide library: pTyr-Var

Enrichment score, inactive:
GRLFAYPDTHR [CAT_Y358] 0.996, DGQVNYEGFVQ [CALM1_Y139_E141G] 0.862, LWKWRYEELKE [CCDC102B_Y299_K298R] 1.17, SEDSEYFRAFE [CASQ2_Y178_K180R_YF] 0.642, TSQSQYFSFRE [CCDC170_Y323] 0.596, QGQHWYSSSDK [CASP10_Y9] 0.637, VVKLTYNENDN [CAMKK2_Y183_A182T] 0.864, DGMADYSDPSY [CDC5L_Y459] 0.612, NSGFFYKTAEE [CCT6B_Y250] 0.817, YSDPSYVKQME [CDC5L_Y464] 0.564, CPSLLYSPVSS [CAMKK2_Y128_P127L] 0.89, PLLEYYRDIFT [CDAN1_Y713] 1.3, LVRAFYCERRR [CARD11_Y970] 0.137, SHLSAFPALEG [CD5_Y465_Y465F] 0.721, QGQHWYSSSDT [CASP10_Y9_K14T] 0.785, EAVSIYQFFGQ [CBLC_Y402_H405Y_YF] 1.51, VTRKEYFIFLE [CAMKV_Y95] 2.67, HDHFGYRQSVT [CD55_Y245_R240H_YF] 2.03, KQNSLYSFSDH [CCDC82_Y331] 0.632

Target: SHP2 N-SH2 domain wild-type
Assay: as above
Conditions: peptide library: pTyr-Var

Enrichment score, inactive:
GRLFAYPDTHR [CAT_Y358] 1.14, DGQVNYEGFVQ [CALM1_Y139_E141G] 0.846, LWKWRYEELKE [CCDC102B_Y299_K298R] 1.04, SEDSEYFRAFE [CASQ2_Y178_K180R_YF] 0.702, TSQSQYFSFRE [CCDC170_Y323] 0.655, QGQHWYSSSDK [CASP10_Y9] 0.663, VVKLTYNENDN [CAMKK2_Y183_A182T] 1.02, DGMADYSDPSY [CDC5L_Y459] 0.468, NSGFFYKTAEE [CCT6B_Y250] 1.1, YSDPSYVKQME [CDC5L_Y464] 0.427, CPSLLYSPVSS [CAMKK2_Y128_P127L] 1.2, PLLEYYRDIFT [CDAN1_Y713] 1.57, LVRAFYCERRR [CARD11_Y970] 0.22, SHLSAFPALEG [CD5_Y465_Y465F] 0.785, QGQHWYSSSDT [CASP10_Y9_K14T] 0.815, EAVSIYQFFGQ [CBLC_Y402_H405Y_YF] 1.49, VTRKEYFIFLE [CAMKV_Y95] 2.77, HDHFGYRQSVT [CD55_Y245_R240H_YF] 2.04, KQNSLYSFSDH [CCDC82_Y331] 0.895
